The source of these data is PubChem BioAssay AID1645882 (National Center for Advancing Translational Sciences (NCATS), 2021).

Among all 16,000 compounds or so, about 120 (0.75%) were called active. About 4% were inconclusive and are not listed. Calls follow the shape of the dose curve; as a rule, active = well fitted inhibition curve with a large enough effect; inconclusive = small, poorly fitted or top-dose-only effect; inactive = no such curve, though single readings can be large or run the other way. Some of the results follow.

Chain of UniProt O95398 (O95398 whole entry, looked up): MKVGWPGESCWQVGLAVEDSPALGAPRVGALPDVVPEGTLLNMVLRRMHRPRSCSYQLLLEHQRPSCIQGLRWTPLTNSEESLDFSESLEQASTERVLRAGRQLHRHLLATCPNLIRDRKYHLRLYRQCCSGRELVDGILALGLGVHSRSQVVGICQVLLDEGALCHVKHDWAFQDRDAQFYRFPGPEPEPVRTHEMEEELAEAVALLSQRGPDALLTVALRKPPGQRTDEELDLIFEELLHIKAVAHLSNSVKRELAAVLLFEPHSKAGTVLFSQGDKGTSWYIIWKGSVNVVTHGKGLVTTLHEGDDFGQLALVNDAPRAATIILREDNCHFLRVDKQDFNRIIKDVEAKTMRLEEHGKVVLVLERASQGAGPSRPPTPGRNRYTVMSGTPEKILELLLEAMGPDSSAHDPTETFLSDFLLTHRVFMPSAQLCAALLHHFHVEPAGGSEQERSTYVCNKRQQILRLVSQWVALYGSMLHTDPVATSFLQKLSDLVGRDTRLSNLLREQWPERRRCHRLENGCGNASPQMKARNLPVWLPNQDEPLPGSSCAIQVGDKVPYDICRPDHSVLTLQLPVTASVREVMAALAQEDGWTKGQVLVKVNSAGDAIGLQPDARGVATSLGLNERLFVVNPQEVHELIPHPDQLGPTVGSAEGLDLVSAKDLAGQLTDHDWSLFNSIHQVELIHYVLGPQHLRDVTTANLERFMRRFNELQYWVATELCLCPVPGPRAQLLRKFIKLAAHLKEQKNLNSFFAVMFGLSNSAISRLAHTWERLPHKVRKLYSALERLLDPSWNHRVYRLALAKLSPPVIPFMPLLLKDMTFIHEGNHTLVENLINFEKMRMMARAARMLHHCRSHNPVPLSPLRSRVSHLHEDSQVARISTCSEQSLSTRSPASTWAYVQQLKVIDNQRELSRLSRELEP

This assay addresses Rap guanine nucleotide exchange factor 3 (Homo sapiens) (UniProt O95398). Kind of assay: Validation qHTS for antagonist of cAMP-regulated guanine nucleotide exchange factor 3 (EPAC1).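 Also: plate controls were DMSO for no effect and ATA control for full effect; nearly all actives have a fitted effect of over 75% in size.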 The note with it: EPAC1 Rap1B-BODIPY-GDP exchange, fluorescence; series mostly up to 150 µM; activity change, negative = inhibition: at the top concentration. The gist of the method:
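EPAC1 (100 nM) mixed with 250 nM RAP1B-BODIPY-GDP and 50 uM GDP; compounds in concentration series, 5 min at room temperature. Fluorescence (ex 480/em 540 nm) read every 5 min for 30 min; normalized to ATA control and DMSO.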
Background: qHTS replaces the single test concentration by a dilution series.
As to `Cc1ccc(CNc2ncnc3sc(C(=O)N4CCC(N5CCCC(O)C5)CC4)c(C)c23)o1` (stereo unspecified), the “activity change, negative = inhibition” value is inactive: 4.22%.
Next, `CCOC(=O)C1=C(C)NC(=S)NC1c1cccc(O)c1` (stereo unspecified): inactive: -4.41%; `COC(=O)[C@@H]1C[C@H](NC(=O)c2ccccn2)CN1Cc1cccc2ccccc12`: inactive: 1.11%; `N#Cc1c(N(CC(=O)O)CC(=O)O)sc(C(=O)O)c1CC(=O)O`: inactive: 20.4%.
Next, `CC[C@H]1OC(=O)[C@H](C)[C@@H](O[C@H]2C[C@@](C)(OC)[C@@H](O)[C@H](C)O2)[C@H](C)[C@@H](O[C@@H]2O[C@H](C)C[C@H](N(C)C)[C@H]2O)[C@](C)(O)C[C@@H](C)CN(C)[C@H](C)[C@@H](O)[C@]1(C)O`: inactive: 17%.
With `COCCn1c(=O)c(-c2cn(C)c3ccccc23)nc2cnc(Oc3ccc(OC)cc3)nc21` the figure was inactive: 19.4%.
With `Cc1csc(SCC(=O)NCC2Cc3cc(-c4cncnc4)ccc3O2)n1` (stereo unspecified), the “activity change, negative = inhibition” value is inactive: -11%.
As to `CS(=O)(=O)Nc1cccc(-c2cncnc2NCc2cccnc2)c1`, the “activity change, negative = inhibition” value was inactive: 4.46%.
Next, `Clc1ccccc1-c1nccc(NCCN2CCOCC2)n1`: inactive: 4.59%; `CCN(CC)CCC(=O)N1c2ccccc2Sc2ccc(Cl)cc21`: inactive: 5.09%.
With `COc1ccc(-c2c(-c3ccc4c(c3)OCO4)noc2-c2ccsc2)cn1` the figure was inactive: 16.7%; with `CCC(C)(C)N=C(NC#N)Nc1cccnc1`, inactive: 5.26%; with `COC(=O)C1CCCCN1Cc1ccc2c(c1)CN(C(=O)c1cc(C)nc3cc(F)ccc13)CCO2` (stereo unspecified), inactive: 7.82%.
Next, `CC(C)(C)C(=O)OCOC(=O)C1N2C(=O)CC2S(=O)(=O)C1(C)C` (stereo unspecified): inactive: -6.72%; `C[C@](Cc1ccc(O)c(O)c1)(NN)C(=O)O`: inactive: -7.94% [at 75.8 µM]; `c1ccc2c(c1)CC(N1CCN(c3cccc4c3OCCO4)CC1)C2`: inactive: -7.72% [at 75.8 µM].
Take `CS(=O)(=O)N1CCC2(CC1)CN(C(=O)Nc1cccc(C#N)c1)C2`: the “activity change, negative = inhibition” value is inactive: 25.2%.
On to `COc1ccccc1-c1nccc(NCc2cnc(C)cn2)n1`, for which the “activity change, negative = inhibition” value was inactive: 15.7%.
Turning to `N#CC[C@H](Cc1ccccc1)N1CCN(Cc2ccccc2)CCC1=O`, the “activity change, negative = inhibition” value was inactive: 9.25%.
Next, `COc1ccc(-c2coc3c(OC)c(OC)cc(OC)c3c2=O)cc1`: inactive: 10.8%; `CCCCCCOc1ccccc1C(N)=O`: inactive: -13.4%; `COc1ccccc1C1CN(Cc2ccc(Sc3nncn3C)o2)Cc2ccccc2O1` (stereo unspecified): inactive: 2.97%.
Regarding `CN(C)c1ncnc2ccc(-c3ccccc3C(F)(F)F)cc12`, the “activity change, negative = inhibition” value was inactive: -3.85%.
As to `COc1cc2c(c(OC)c1OC)-c1ccc(OC)c(=O)cc1[C@H](NC(C)=O)CC2`, the “activity change, negative = inhibition” value is inactive: 16.7%.
Next, `CC(=O)O[C@@]1(C(C)=O)CCC2C3C=C(Cl)C4=CC(=O)C5CC5[C@@]4(C)C3CC[C@]21C` (stereo partly specified): inactive: -8.67%; `COc1cccc(-c2nccc(N(C)Cc3ccco3)n2)c1`: inactive: -11.6%.
With `CC(=O)Nc1c(I)c(C(=O)N[C@H]2C(O)O[C@H](CO)[C@@H](O)[C@@H]2O)c(I)c(N(C)C(C)=O)c1I` (stereo partly specified) the figure was inactive: 7.62% [at 75.8 µM].
Next, `NC[C@H]1O[C@H](O[C@H]2[C@H](O[C@@H]3O[C@H](CO)[C@@H](O)[C@H]3O)C(O)[C@H](N)C[C@@H]2N)[C@H](N)[C@@H](O)[C@@H]1O` (stereo partly specified): inactive: 20.9% [at 75.8 µM].
In the case of `COc1cccc(Cn2c(=O)c(-c3cccs3)nc3cnc(OCc4ccccc4)nc32)c1`, the “activity change, negative = inhibition” value is inactive: 20.4%.
As to `COCCn1c(=O)c(-c2cccs2)nc2cncnc21`, the “activity change, negative = inhibition” value is inactive: 13.2%.
For `NC[C@H](O)c1ccc(O)c(O)c1`, the activity change, negative = inhibition result was “inactive”.
Next, `CNc1nc(-c2c(C)noc2C)nc2ccccc12`: inactive: 19.1%.
Next, `CN(C)C(=O)c1cc(CNCc2ccc(C(F)(F)F)cc2)cc(NC(=O)c2ccccn2)c1`: inactive: 6.89%; `CN(N=O)C(=O)N[C@H]1C(O)C(O)C(CO)O[C@@H]1O` (stereo partly specified): inactive: 8.22%.
Next, `COC(=O)N1CCC2(CCN(Cc3cc(C(F)(F)F)cc(C(F)(F)F)c3)CC2)CC1`: inactive: -20.8%; `Cc1nn(-c2ccc(F)cc2)c(C)c1CNC(=O)c1ccc(-n2cc(NC(=O)c3ccoc3)cn2)cc1`: inactive: -7.96%.
With `COc1cccc(CN2CCC(c3nnc(SCC4CCCO4)n3C)CC2)c1O` (stereo unspecified), the “activity change, negative = inhibition” value was inactive: 16.1%.
Take `CCc1cc(C(=O)NCC2Cc3cccc(-c4ccc(C(=O)OC)cn4)c3O2)no1` (stereo unspecified): the “activity change, negative = inhibition” value was inactive: 14.1%.
With `CCC1CN(CCNC(=O)c2cc3ccccc3oc2=O)Cc2cc(OC)ccc2O1` (stereo unspecified) the figure was inactive: -2.98%.
Next, `O=c1c(-c2cccs2)nc2cnc(N3CCNCC3)nc2n1C1CC1`: inactive: 22.8%; `CC1CCC2[C@](C)(CO)C(O)CC[C@]2(C)C12CCC(CO)(CCO)O2` (stereo partly specified): inactive: 15.1%; `CNCC(O)c1ccc(O)c(O)c1` (stereo unspecified): “inactive”.
On to `c1cc(CN2CCCCC2)cc(OCCCNc2nc3ccccc3s2)c1`, for which the activity change, negative = inhibition result was “inactive”.
As to `Cc1ccccc1-c1cncnc1NCc1cccnc1`, the “activity change, negative = inhibition” value is inactive: 6.77%.
With `Nc1ccn(C2OC(CO)C(O)C2O)c(=O)n1` (stereo unspecified), the activity change, negative = inhibition result is “inactive”.
With `COc1ccc(OC)c2c(/C=C/c3c[nH]c4ccccc34)ccnc12` the figure was inactive: 19.5%; with `COc1cc(N)c(NC(=O)/C=C/c2nc3cc(OC)c(OC)cc3[nH]2)cc1OC`, inactive: 3.17%.
Next, `Cc1ccc(C(=O)NCCc2nnc3n2CCN(Cc2ccc4ccccc4c2)CC3)c(C)c1`: inactive: 2.14%; `C=C[C@]1(C)C[C@@H](OC(=O)CSC(C)(C)CNC(=O)[C@H](N)C(C)C)[C@]2(C)[C@H](C)CC[C@]3(CCC(=O)[C@H]32)[C@@H](C)[C@@H]1O`: inactive: -14.5%; `CC1=C(C(=O)OCc2ccc3nsnc3c2)N2C(=O)[C@@H](NC(=O)OCc3ccc4nsnc4c3)[C@H]2SC1`: inactive: 16.4%.
With `COc1ccc(CN2CCOc3c(cc(-c4ccc(OC)nn4)cc3OC)C2)c(O)c1`, the “activity change, negative = inhibition” value is inactive: -11.5%.
